From PubChem BioAssay AID1345083 (National Center for Advancing Translational Sciences (NCATS), 2018)
Screen size: about 94,000 compounds; about 6,200 (6.6%) were called active. The shares of active, inactive and inconclusive entries below differ from those in the screen. The call rests on the fitted dose curve; in most records, active means well fitted inhibition curve with a large enough effect; inconclusive means small, poorly fitted or top-dose-only effect; inactive means flat fitted curve, though single readings scatter. A potency beside an inconclusive call is a rough fit, not a confirmed value.

assay: Cytotoxic Profiling in HEK 293 Cell Line of Diverse Libraries Using Quantitative High-Throughput Screening; conditions: HEK 293 viability, ATP luminescence (CellTiter-Glo), 48-72 h; activity change, negative = cytotoxicity: at 115 µM (top of the series) unless noted; series mostly up to 115 µM; further: nearly all actives have a fitted effect of over 60% in size
Method in brief: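 HEK 293 cells at 250 cells/well were exposed to compounds by pintool transfer for 48 or 72 hr at 37 degree Celsius, 5% CO2. Viability was read as ATP-coupled luminescence with CellTiter-Glo after 10 min at room temperature.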
On the % scale 0 is the no-effect control and ±100 the full control effect; potency means the concentration at half of the fitted maximal effect; tags describe the fitted curve by direction and shape.

| SMILES | outcome | Potency | activity change, negative = cytotoxicity |
| --- | --- | --- | --- |
| C#CCN(C)CC[C@@H]1CC[C@H](O)[C@@H](C(=O)NCc2ccc(OC)cc2)O1 | inactive [at 172 µM] |  |  |
| COCC1CN(C)CC12CCN(S(=O)(=O)c1ccc3c(c1)OCCO3)CC2 (stereo unspecified) |  | inconclusive: 89.1 µM [inhibitor, partial curve, poor fit] |  |
| C#CCNC(=O)c1cn2cc(-c3ccc(C(F)(F)F)cc3)sc2n1 |  | inconclusive: 56.2 µM [inhibitor, partial curve, poor fit] |  |
| O=C(NC1CCCC1)N1c2ccccc2CC1c1nc(C2CC2)no1 (stereo unspecified) |  | inconclusive: 39.8 µM [inhibitor, partial curve, poor fit] |  |
| O=C1[C@@H]2C[C@@H](O)CN2C2(CN(Cc3cccc(OC(F)(F)F)c3)C2)C(=O)N1Cc1cccc(Cl)c1 |  | inconclusive: 89.1 µM [inhibitor, partial curve, poor fit] |  |
| CCOc1ccc(Cl)cc1CN(C)c1cc(C2CC(O)C2)nc(N)n1 (stereo unspecified) |  | active: 39.8 µM |  |
| Fc1ccc(-c2cccc(CN3CCOCC3)c2)c(Cl)c1 |  | inconclusive: 56.2 µM [inhibitor, partial curve, poor fit] |  |
| CN(Cc1cccnc1)c1ccc2ncc(Nc3ccc(C(F)(F)F)cc3)n2n1 |  | active: 44.7 µM |  |
| Cc1cccc(CN2CCNc3cc(Nc4cccnc4)ncc3C2)c1 |  | inconclusive: 89.1 µM [inhibitor, partial curve, poor fit] |  |
| COc1ccc(C(=O)NC2CCCN(c3ccnc4ccnn34)C2)cc1 (stereo unspecified) |  | active: 31.6 µM |  |
| COc1ccc(CNC(=O)c2cc(-c3cccc(OC)c3)nc3c2cnn3C)cc1 |  | inconclusive: 44.7 µM [inhibitor, partial curve, poor fit] |  |
| Fc1ccc(-c2cnc([C@@H]3COCCN3Cc3cnc4ccccc4c3)[nH]2)c(F)c1 |  | active: 89.1 µM |  |
| Cn1cc(CN2CCCCCNC(=O)[C@@H]3CCC[C@@H]32)c2ccccc21 |  | inconclusive: 89.1 µM [inhibitor, partial curve, poor fit] |  |
| CCC(C)NC(=O)C1CC(c2ccc(F)c(C)c2)CN(C(=O)c2ccccc2)C1 (stereo unspecified) |  | inconclusive: 25.1 µM [inhibitor, partial curve, poor fit] |  |
| Cc1noc(C)c1C(=O)N1CCN(c2ccc3nnc(C4CC4)n3n2)CC1 |  | inactive |  |
| COc1ncccc1-c1cc2c(ccn2CC2CCN([S+](C)(=O)[O-])CC2)c(N2CCOCC2)n1 |  | inconclusive: 56.2 µM [inhibitor, partial curve, poor fit] |  |
| COCC1CN(C)CC12CCN(S(=O)(=O)c1ccc(F)c(Cl)c1)CC2 (stereo unspecified) |  | inconclusive: 50.1 µM [inhibitor, partial curve, poor fit] |  |
| Cc1ccc(-c2cccc(CN3CCCC3C(=O)N3CCCCC3)c2)cc1Cl (stereo unspecified) |  | active: 31.6 µM |  |
| COc1ccc(CN2CC[C@H]3COC(=O)N3c3cc(F)ccc3C2)cc1 |  | inconclusive: 126 µM [inhibitor, single point] |  |
| OCc1ccc(-c2cc3c(ccn3Cc3cccnc3)c(C3=CCOCC3)n2)cc1 |  | inconclusive: 100 µM [inhibitor, partial curve] |  |
| Cc1cnc(C(=O)N[C@@H]2CCC[C@@H]2C(=O)N2CCC(Cc3ccccc3)CC2)cn1 |  | inconclusive: 89.1 µM [inhibitor, single point] |  |

| SMILES | outcome | Potency | activity change, negative = cytotoxicity |
| --- | --- | --- | --- |
| COc1ccc(CC(=O)N2CCN(c3cc(-c4ccc(OC)cc4)[nH]n3)CC2)cc1 |  | inconclusive: 50.1 µM [inhibitor, partial curve, poor fit] |  |
| Cc1ccc(C(=O)NC2CCN(c3cc(-c4ccccc4)[nH]n3)C2)cc1C (stereo unspecified) |  | inconclusive: 79.4 µM [inhibitor, partial curve, poor fit] |  |
| Cc1ccccc1NC(=O)N1c2ccccc2CC1c1noc(C2CCOCC2)n1 (stereo unspecified) |  |  | inactive: -13.2% |
| COC(=O)CNC(=O)C1CCCN1Cc1ccc(-c2cncnc2)cc1 (stereo unspecified) |  |  | inactive: -13.2% |
| COc1ccc(-c2cc(-c3cnc4[nH]ccc4c3)cn3cncc23)cc1 |  | inconclusive: 79.4 µM [inhibitor, partial curve] |  |
| COc1cc(=O)n2c(c1C(=O)NCc1ccccc1Cl)CCCC2 |  |  | inactive: -4.61% |
| COCCNC(=O)C1CCCN(c2nc3ncccc3o2)C1 (stereo unspecified) |  |  | inactive: 0.338% [at 172 µM] |
| Cc1cccc(NC(=O)Cn2ccn3nc(-c4ccccc4)c(CO)c3c2=O)c1C |  | active: 89.1 µM |  |
| COc1ccccc1CNC(=O)C1CCCN1Cc1ccc(-c2cc(C)cc(C)c2)cc1 (stereo unspecified) |  | active: 39.8 µM |  |
| CCNC(=O)OC1CCN(C(=O)c2ccc(OC)c(OC)c2)CC(=O)N(C)c2ccccc21 (stereo unspecified) |  | inconclusive: 44.7 µM [inhibitor, partial curve, poor fit] |  |
| COc1cccc(CC(=O)N2CCC3(CC2)OC(=O)N(Cc2ccccc2F)C3(C)c2ccccc2)c1 (stereo unspecified) |  | inconclusive: 50.1 µM [inhibitor, partial curve, poor fit] |  |
| O=C(NCC1COc2ncncc2C(=O)N1Cc1ccccc1)c1ccn[nH]1 (stereo unspecified) |  |  | inactive: -26.7% [at 172 µM] |
| COc1cccc([S+](=O)([O-])N2CCC(C(=O)N3CCC(N4Cc5cccn5C4=O)CC3)CC2)c1 |  | inconclusive: 56.2 µM [inhibitor, partial curve, poor fit] |  |
| COc1cc(CN2CCCC(COc3ccccc3C(=O)NC(C)C)C2)ccc1O (stereo unspecified) |  | inconclusive: 89.1 µM [inhibitor, partial curve, poor fit] |  |
| COc1ccc2[nH]c3c(c2c1)CCNC31CCN(C2CCCC2)CC1 |  | inconclusive: 50.1 µM [inhibitor, partial curve, poor fit] |  |
| CCOC(=O)C1CCCN(C(=O)C2CC(c3ccccc3)CN(C(=O)c3cccc(F)c3)C2)C1 (stereo unspecified) |  | inconclusive: 89.1 µM [inhibitor, single point] |  |
| COc1ccccc1C(=O)N1CCC2CC(=O)NCCC2C1 (stereo unspecified) |  | inconclusive: 89.1 µM [inhibitor, partial curve] |  |
| O=C1C2CN(Cc3ccncc3Cl)CCC2OCCN1Cc1ccccc1 (stereo unspecified) |  | inconclusive: 100 µM [inhibitor, partial curve, poor fit] |  |
| Cc1cnc(CC2CCN(C(=O)Cc3cccc(F)c3)CC2)n1CC1CC1 |  |  | inactive: -21.3% |
| COCCn1cc(C(=O)NC2CCCc3c2[nH]c2c(Cl)cccc32)c2ccccc2c1=O (stereo unspecified) |  | inconclusive: 7.94 µM [inhibitor, full curve, poor fit] |  |
